Data from PubChem BioAssay AID485360 (National Center for Advancing Translational Sciences (NCATS), 2010).
Among all 230,000 compounds or so, about 1,500 (0.65%) were called active. The inconclusive results got no clear call from the source; some entries with a clear call stand among them for comparison. The call rests on the fitted dose curve; in most records, active means well fitted inhibition curve with a large enough effect; inconclusive means small, poorly fitted or top-dose-only effect; inactive means no such curve, though single readings can be large or run the other way. Potencies beside an inconclusive call are fits to weak or partial responses and may not hold up.

molecular target: Lethal(3)malignant brain tumor-like protein 1 (Homo sapiens) (UniProt Q9Y468); test: qHTS Assay for the Inhibitors of L3MBTL1; conditions: AlphaScreen L3MBTL1–H3K9me1 peptide binding; activity, negative = inhibition: at 57.1 µM (top of the series); further: nearly all actives have a fitted effect of over 60% in size
Sequence of UniProt Q9Y468 (Q9Y468 whole entry, looked up): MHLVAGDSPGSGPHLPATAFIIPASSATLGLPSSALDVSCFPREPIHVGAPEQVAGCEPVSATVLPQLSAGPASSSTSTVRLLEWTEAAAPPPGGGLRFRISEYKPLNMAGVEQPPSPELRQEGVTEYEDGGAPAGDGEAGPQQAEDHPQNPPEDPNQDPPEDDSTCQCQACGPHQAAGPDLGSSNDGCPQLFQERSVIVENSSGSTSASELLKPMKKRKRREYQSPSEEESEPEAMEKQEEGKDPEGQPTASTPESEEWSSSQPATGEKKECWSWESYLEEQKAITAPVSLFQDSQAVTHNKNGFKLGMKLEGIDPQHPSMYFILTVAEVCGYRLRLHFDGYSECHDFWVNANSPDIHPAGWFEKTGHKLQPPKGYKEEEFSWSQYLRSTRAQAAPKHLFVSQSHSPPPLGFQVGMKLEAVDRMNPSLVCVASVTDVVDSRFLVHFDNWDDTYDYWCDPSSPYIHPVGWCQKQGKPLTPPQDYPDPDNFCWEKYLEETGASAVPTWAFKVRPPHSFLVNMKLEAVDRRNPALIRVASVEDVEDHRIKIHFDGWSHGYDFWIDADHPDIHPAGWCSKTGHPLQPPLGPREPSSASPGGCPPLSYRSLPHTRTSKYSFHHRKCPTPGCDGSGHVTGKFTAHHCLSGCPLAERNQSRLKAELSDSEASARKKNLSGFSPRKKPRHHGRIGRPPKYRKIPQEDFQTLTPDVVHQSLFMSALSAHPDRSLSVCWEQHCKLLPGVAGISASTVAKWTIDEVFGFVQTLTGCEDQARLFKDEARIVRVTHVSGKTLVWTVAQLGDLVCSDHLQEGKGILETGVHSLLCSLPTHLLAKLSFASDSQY
Excerpt: The histone code is comprised of many post-translational modifications that occur mainly in histone tail peptides. The identity and location of these marks are read by a variety of histone binding proteins that are emerging as important regulators of cellular differentiation and development and are increasingly being implicated in numerous disease states. Small molecule probes that disrupt the interaction between histone binding proteins and chromatin would enable a systematic chemical biology study of proteins that read the histone code and could potentially reveal new targets for drug discovery. However, no such small molecules are known. This dearth of quality molecular probes can largely be attributed to the novelty of the target class and the lack of screening assays. This proposal details the development of the first high-throughput screening assay for the discovery of inhibitors of methyl-lysine binding proteins and how it can be be used to initiate a full-scale discovery effort for antagonists of histone binding proteins. Specifically, this work focuses on an AlphaScreen(tm)-based HTS assay for Malignant Brain Tumor (MBT) domain-containing proteins, which bind to the lower methylation states of lysine residues present in histone tail peptides.
To each well, 2 uL of L3MBTL1 protein (final 50 nM) and 1 uL biotinylated histone peptide monomethylated at Lys9 [b-AHA-H3(1-15)K9me1] (final 75 nM) was added using a nanoliter dispenser. Formation of a protein-peptide complex proceeded at room temperature for 30 min. A Kalypsys pin-tool was employed to transfer 23 nL of library compound solution in DMSO to each well. Cefsulodin, found in a pilot screen of the LOPAC library to be a weak inhibitor of L3MBTL1 binding, was used as an intraplate control with a 16-point titration in duplicate. Following a 30 min incubation of the protein-peptide complex with compounds at room temperature, a mixture of 40 ug/mL each streptavidin-coated donor and nickel chelate acceptor AlphaScreen beads (final 10 ug/mL) was added in a 1 uL dispense for a final volume of 4 uL. Plates were incubated, protected from the light for 30 min at room temperature. Microplates were then be read on an EnVision multilabel plate reader using the 1,536 plate HTS AlphaScreen aperture (excitation time 80 ms, measurement time 240 ms).
On the % scale 0 is the no-effect control and ±100 the full control effect; potency means the concentration at half of the fitted maximal effect; tags describe the fitted curve by direction and shape.

Compound	Potency	activity, negative = inhibition
CN(C)c1ccc(C=Nc2ccc(N(C)C)cc2)cc1	inconclusive: 39.8 µM [inhibitor, single point]	
N#Cc1cccc(NC(=O)Cn2c3[n+](c4ccc(C(F)(F)F)cc42)CCCCC3)c1		inactive: 4.2%
[O-][N+]1=c2ccc(Nc3ccccc3)cc2=NC12CCCCC2	inconclusive: 22.4 µM [inhibitor, partial curve]	
CCOC(=O)C1=CN(Cc2cccc(F)c2)S(=O)(=O)N(CC)C1CCc1ccccc1 (stereo unspecified)	inconclusive: 39.8 µM [inhibitor, single point]	
Cc1cccc(N/C(=N\S(=O)(=O)c2ccccc2)C(F)(F)F)c1	inconclusive: 6.31 µM [inhibitor, single point]	
CCc1nnc(NC(=O)c2ccc3ccccc3n2)s1	inconclusive: 0.141 µM [inhibitor, full curve, poor fit]	
COCCN(C(=O)COC(=O)c1cc2c(s1)CCCC2)c1c(N)n(Cc2ccccc2)c(=O)[nH]c1=O	inconclusive: 28.2 µM [inhibitor, single point]	
O=[N+]([O-])c1cccnc1N1CCN(c2ccccc2F)CC1	inconclusive: 8.91 µM [inhibitor, partial curve]	
Oc1ccc(/C=N/Nc2ccc3ccccc3c2)c(O)c1		inactive: -16.8%
Cc1c(N2C(=O)c3ccc4c5c(ccc(c35)C2=O)CC4)c(=O)n(-c2ccccc2)n1C	active: 12.6 µM	
Cn1cnc([N+](=O)[O-])c1Oc1cccc(O)c1	inconclusive: 6.31 µM [inhibitor, single point]	
COc1ccc(C(=O)c2ccc(OC)c(N)c2)cc1N	inconclusive: 5.62 µM [inhibitor, partial curve]	
CCOC(CNC(=O)c1ccc(N2CCc3ccccc32)c([N+](=O)[O-])c1)OCC	inconclusive: 17.8 µM [inhibitor, partial curve]	
CC(C)c1nc(C#N)c(NCCCn2ccnc2)o1	inconclusive: 6.31 µM [inhibitor, single point]	
COCCN1CN(S(=O)(=O)c2ccccc2)c2nc3ccccc3nc21		inactive: -6.18%
O=C(CCc1nc2ccccc2[nH]1)N1CCc2ccccc2C1		inactive: 26%
COCCNC(=O)c1ccc(C2SCC(=O)N2Cc2ccco2)cc1 (stereo unspecified)		inactive: 52.5%
Cc1ccc(-c2[nH]nc(N)c2N=Nc2ccccc2C)cc1	inconclusive: 35.5 µM [inhibitor, single point]	
CCCCn1c(Cc2ccccc2)n[nH]c1=S		inactive: -2.07%
C=CCOc1c(Br)cc(CNc2ccc(NC(=O)C(C)C)c(OC)c2)cc1OCC		inactive: -1.51%
CCCn1c(N)c(N(CCOC)C(=O)COC(=O)c2ccccc2NCCO)c(=O)[nH]c1=O		inactive: -2.24%
COc1cc(/C=C2\COC/C(=C\c3ccc(O)c(OC)c3)C2=O)ccc1O	inconclusive: 28.2 µM [inhibitor, single point]	
CNCc1ccccc1Sc1ccc(O)c(O)c1	inconclusive: 25.1 µM [inhibitor, partial curve]	
Cc1cccc(NC(=S)N(CCCN2CCOCC2)Cc2cn(C)c3ccccc23)c1	inconclusive: 25.1 µM [inhibitor, single point]	

Compound	Potency	activity, negative = inhibition
CC1(C)COC(c2ccc(F)c([N+](=O)[O-])c2)=N1		inactive: 4.43%
CCOc1cc(NCc2ccccc2)c2ncn(C(C)C)c2c1	inconclusive: 25.1 µM [inhibitor, single point]	
COc1ccc(OCC(=O)Nc2nnc(-c3ccco3)s2)cc1	inconclusive: 28.2 µM [inhibitor, single point]	
COc1cc(/C=N/NC(=S)NC2CC3CC2C2C=CCC32)ccc1O (stereo unspecified)	inconclusive: 22.4 µM [inhibitor, partial curve]	
CCCCN(C)C(=O)C1CCN(Cc2ccc(OCc3ccccc3)cc2)CC1		inactive: 11.5%
S=C1NCN(C2CCCCC2)CN1Cc1ccccc1		inactive: 3.17%
O=C1NC(=S)S/C1=C/c1ccc(N2CCOCC2)o1	active: 31.6 µM	
COc1cc(C)c(C)cc1S(=O)(=O)N1CCN(Cc2ccc3c(c2)OCO3)CC1	inconclusive: 2 µM [inhibitor, partial curve]	
O=C(/C=C/c1ccco1)NC(=S)Nc1ccccc1N1CCOCC1		inactive: -12.2%
Cc1cc(=O)oc2cc(OCCCN3C(=O)c4ccccc4C3=O)ccc12	inconclusive: 6.31 µM [inhibitor, single point]	
Cn1nnnc1SCc1cc(=O)n2ccsc2n1		inactive: 6.1%
Cc1ccc(/C=[N+](\[O-])c2ccc(N(C)C)cc2)c2nsnc12	inconclusive: 1.41 µM [inhibitor, full curve]	
O=C(NC(=S)N1CCN(c2c(Cl)cccc2[N+](=O)[O-])CC1)c1cccs1	inconclusive: 14.1 µM [inhibitor, partial curve, poor fit]	
COc1cccc(C(=O)NCc2nnc(SCC(=O)Nc3nccs3)n2-c2ccccc2)c1		inactive: -11.8%
NC(=O)C1CCN(C2=C(NS(=O)(=O)c3ccccc3)C(=O)c3ccccc3C2=O)CC1	inconclusive: 25.1 µM [inhibitor, single point]	
CCOc1ccc(Br)cc1S(=O)(=O)Nc1ccc(C(=O)OC(C)C(=O)N(C)c2ccccc2)cc1 (stereo unspecified)	inconclusive: 0.708 µM [inhibitor, single point]	
CCCOC(=O)c1ccc(NC(=O)c2nc3nc(C)cc(C)n3n2)cc1	inconclusive: 3.16 µM [inhibitor, partial curve, poor fit]	
Cc1ccc(C)n1NC(=O)c1ccco1		inactive: -2.81%
O=C(COc1cccnc1[N+](=O)[O-])Nc1ncc(Cl)cc1Cl	inconclusive: 39.8 µM [inhibitor, single point]	
O=[N+]([O-])c1ccc(N2CCN(Cc3ccccc3)CC2)nc1	inconclusive: 10 µM [inhibitor, partial curve, poor fit]	
COc1ccc2nc(NC(=O)CSc3nnc4n3C(C)(C)Cc3ccccc3-4)sc2c1	inconclusive: 0.794 µM [inhibitor, single point]	
Cc1cc([N+](=O)[O-])nn1CC(=O)N/N=C/c1ccccc1O	inconclusive: 25.1 µM [inhibitor, single point]	
CCN(CC)c1ccc(NC2=C(Cl)C(=O)c3ccccc3C2=O)cc1	inconclusive: 5.01 µM [inhibitor, partial curve]	
C=CCn1c(-c2ccc(S(=O)(=O)N3CCOCC3)cc2)csc1=Nc1ccccc1		inactive: -27.3%

Compound	Potency	activity, negative = inhibition
Cc1cc(C)c(O)c(-c2n[nH]c3c2C(c2cccc(O)c2)N(Cc2ccco2)C3=O)c1 (stereo unspecified)	inconclusive: 31.6 µM [inhibitor, single point]	
O=[N+]([O-])c1cc2c(cc1/C=N/n1c(-c3ccccn3)n[nH]c1=S)OCO2	inconclusive: 35.5 µM [inhibitor, single point]	
C/C(=N/NC(=O)c1cc(O)c(O)c(O)c1)c1ccc([N+](=O)[O-])cc1	active: 17.8 µM	
Cc1ccc2c(cnn2C(=O)CCC(=O)NCc2cccc(Cl)c2)c1		inactive: 0.238%
CN(C)c1ccc(C2C3C(=O)NC(=O)C3ON2c2ccc(Cl)cc2)cc1 (stereo unspecified)	inconclusive: 28.2 µM [inhibitor, partial curve]	
O=C(C1=C(O)/C(=C/c2ccc(O)cc2)CCC1)C(F)(F)F		inactive: -1.39%
Cc1ccnc2c1ccc1cccnc12	active: 3.55 µM	
COc1ccc(N=CC=C2OC(C)(C)C(C)(C)O2)cc1OC		inactive: -2.95%
COc1ccccc1Nc1ncccc1[N+](=O)[O-]	inconclusive: 25.1 µM [inhibitor, partial curve]	
Cc1ccc(-c2cnc(SCC(=O)N3CCCc4ccccc43)n2C)cc1	inconclusive: 39.8 µM [inhibitor, partial curve]	
CCC12CCCN3CCc4c(n(c5ccccc45)C(O)(C(=O)OC)C1)C32 (stereo unspecified)	inconclusive: 28.2 µM [inhibitor, single point]	
CCOc1ccc(S(=O)(=O)Nc2ccc(C(=O)NCc3ccncc3)cc2)cc1		inactive: 1.33%
Cc1[nH]c2ccc(C(=O)NCC(C)(C)N3CCOCC3)cc2c1C	inconclusive: 3.98 µM [inhibitor, full curve, poor fit]	
COc1ccc(NC(=S)NCCSc2ccc(Cl)cc2)c(OC)c1	inconclusive: 28.2 µM [inhibitor, single point]	
COc1ccccc1NS(=O)(=O)c1ccc(N/N=C(\C)C(C)C)c([N+](=O)[O-])c1	inconclusive: 8.91 µM [inhibitor, partial curve]	
COc1ccc(Cn2c(SCc3ccccc3C)nc3cc(OC)c(OC)cc3c2=N)cc1		inactive: -3.45%
O=S1(=O)N=C(N/N=C/c2ccccn2)c2ccccc21	inconclusive: 39.8 µM [inhibitor, single point]	
O=C(CN1CCN(c2nc(-c3ccccc3)cs2)CC1)NCc1ccc2c(c1)OCO2	inconclusive: 22.4 µM [inhibitor, single point]	
COc1ccc(N2CCN(C(=O)c3ccc(Cl)c(S(=O)(=O)N4CCCC4)c3)CC2)cc1	inconclusive: 0.224 µM [inhibitor, full curve, poor fit]	
NC(=O)NC(CC(=O)NNC(=O)c1ccccn1)c1ccccc1Cl (stereo unspecified)		inactive: -1.01%
C[C@H](CO)N1C[C@H](C)[C@@H](CN(C)S(=O)(=O)c2ccccc2)Oc2c(NS(=O)(=O)c3ccccc3)cccc2C1=O	inconclusive: 1.78 µM [inhibitor, partial curve]	
CCC(=O)c1c[nH]c(C(=O)NCCCn2ccnc2)c1		inactive: -4.95%
CC(C)(C)NS(=O)(=O)c1ccc(OCC(=O)NCC2CCCO2)cc1 (stereo unspecified)	inconclusive: 5.01 µM [inhibitor, single point]	
